Results published in PubChem BioAssay AID743279 (National Center for Advancing Translational Sciences (NCATS), 2014).
Values joined by “and” are separate entries in the source; they are usually repeats but may differ in a detail not shown here. Equal entries are not always repeated. The campaign covered roughly 360,000 compounds. About 17,000 (4.7%) were called active. The shares of active, inactive and inconclusive entries below differ from those in the screen. Rule as the data show it: active = activity change below about -50%; inconclusive = mostly about -30% to -49%; inactive = weaker than that.
% is scaled to controls: 0 for no effect and ±100 for the full control effect.

Test: qHTS for Inhibitors of Inflammasome Signaling: IL-1-beta AlphaLISA Primary Screen
Conditions: THP-1 LPS/ATP IL-1B secretion, 16 h; at 57.5 µM, active compounds read low
Summary of the method: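 THP-1 cells pretreated 1 hr with compounds (up to 57.5 uM final), then stimulated with LPS (250 ng/mL final) plus ATP (1.25 mM final); secreted IL-1B measured by AlphaLISA after 16 hr, decreased signal indicating inhibition.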
In the case of `COc1cccc(CNc2ccc(F)c([N+](=O)[O-])c2)c1O`, the activity change is reported as inconclusive: -42.2%. With `CC(c1ccccc1)N1CCC(CNC(=S)Nc2cccc(Cl)c2)C1` (configuration not stated) the activity change was active: -80.3%. In the case of `Cc1ccc(NC(=S)Nc2ccc(F)cc2)c(C)c1`, the activity change is reported as active: -58.8%. With `COc1cc2cc(CN(Cc3cccnc3)C(=O)Nc3ccccc3)c(=O)[nH]c2cc1OC` the activity change was inconclusive: -33.4%. With `COc1cccc(-c2cc3nc(-c4ccccc4)cc(N4CCC5(CC4)OCCO5)n3n2)c1` the activity change was inconclusive: -39.3%. In the case of `Cc1occc1C(=O)N/N=C/c1ccc(-c2ccccc2)cc1`, the activity change is reported as inconclusive: -44.3%. With `O=C(/C=C/c1ccc(Cl)cc1Cl)N(Cc1ccccc1)C1CCS(=O)(=O)C1` (configuration not stated) the activity change was inconclusive: -40.6%. With `COc1ccccc1CN1CCC(CNS(=O)(=O)c2cc(-c3onc(C)c3C)ccc2OC)CC1` the activity change was inconclusive: -36.1%. With `CCN(CC)CCCNC(=S)N1CCN(c2nc(-c3ccccc3)cs2)CC1` the activity change was active: -50.1%. In the case of `S=C(NCc1cccs1)Nc1cccc2ccccc12`, the activity change is reported as inconclusive: -44.1%. For `CC(Sc1nc2ccccc2s1)C(=O)NC1CCCc2ccccc21` (configuration not stated), the activity change was inconclusive: -30.7%. With `O=C(CCN1C(=O)/C(=C\c2ccccc2F)SC1=S)N1CCCCC1` the activity change was inconclusive: -40.4%. In the case of `Cc1ccccc1CN1CCN(CC(=O)NCCCN2CCN(c3ccc(F)cc3)CC2)C1=O`, the activity change is reported as inconclusive: -37.7%. In the case of `CCc1cc(-c2n[nH]c(C)c2-c2nc3ccccc3n2C)c(O)cc1O`, the activity change is reported as inconclusive: -35.4%. With `CCCS(=O)(=O)N1CCN(Cc2ccc3c(c2)c2ccccc2n3CC)CC1` the activity change was inconclusive: -30.5%. With `Fc1cccc(-c2cc3nc4c(c(N5CCC6(CC5)OCCO6)n3n2)CCCC4)c1` the activity change was active: -70.1%. In the case of `Cc1oc2ccc(O)cc2c1C(=O)c1ccc(F)cc1`, the activity change is reported as inconclusive: -39.8%. For `O=C1CC2(CCN(C(=O)c3cccc(F)c3)CC2)Oc2ccccc21`, the activity change was inactive: -10.4%. With `Cc1cc2nc(/C(C#N)=C/c3ccncc3)[nH]c2cc1C` the activity change was inactive: -15.8%. For `CCCCNC(=S)N1CCN(c2nc3ccccc3s2)CC1`, the activity change was inconclusive: -35.8%. In the case of `CCCC(=O)NC(NC(=S)Nc1ccc(N=Nc2ccccc2)cc1)C(Cl)(Cl)Cl` (configuration not stated), the activity change is reported as inconclusive: -36.3%. In the case of `N#Cc1cccc(C(c2nnnn2CCc2ccccc2)N2CCN(C3CCCCC3)CC2)c1` (configuration not stated), the activity change is reported as inconclusive: -34.3%. For `N#Cc1c(Nc2ccc(Cl)cc2)s[nH]c1=O`, the activity change was active: -72.5%. With `COc1cccc(CC(=O)Nc2nc(-c3ccc(F)c(F)c3)cs2)c1` the activity change was inconclusive: -37.5%. With `CCCCN(C)c1c(C)nc2ccc(C(=O)NCc3ccc(OC)cc3)cn12` the activity change was inconclusive: -36.7%. In the case of `Cc1ccc(Nc2nc(C(=O)NCC3CCCO3)cs2)cc1` (configuration not stated), the activity change is reported as inconclusive: -31.5%. For `COc1ccccc1C(=O)N/C(=C\c1cn(C)c2ccccc12)C(=O)NCCCn1ccnc1`, the activity change was inconclusive: -33.2%. For `CCCOP(=O)(c1ccc(N(C)C)cc1)C(O)c1ccccc1OC` (configuration not stated), the activity change was inactive: -14.6%. For `[O-][N+]1=c2ccc(Nc3ccccc3)cc2=NC12CCCCC2`, the activity change was active: -98%. With `Cc1cc(NC(=O)Nc2ccccc2[N+](=O)[O-])no1` the activity change was inactive: -17.8%. With `CCOc1ccc(NS(=O)(=O)c2ccc(NC(=S)NC(=O)CC(C)C)cc2)cc1` the activity change was inactive: 0%. With `COc1ccc2cc(/C=C/C(=O)N3CCN(CC(=O)N4CCCCCC4)CC3)ccc2c1` the activity change was inconclusive: -46.5%. In the case of `Cc1c(NC(=O)COC(=O)c2ccccc2O)c(=O)n(-c2ccccc2)n1C`, the activity change is reported as inactive: -21.5%. For `O=C1CCC(C(=O)Nc2ccccc2N2CCCC2)=NN1`, the activity change was inactive: 1.82%. For `Cc1cc(C)cc(OCC(=O)Nc2ccc(N3CCN(C(=O)c4ccco4)CC3)cc2)c1`, the activity change was inconclusive: -36.3%. For `O=C(NCC(=O)N1CCN(C(c2ccccc2)c2ccccc2)CC1)c1ccccc1F`, the activity change was active: -52.4%. For `O=C(Oc1c(Cl)cc(Cl)c2cccnc12)c1ccco1`, the activity change was inconclusive: -36.4%. In the case of `COCCNC(=S)N(CCc1c(C)[nH]c2ccc(F)cc12)Cc1ccc(C)cc1`, the activity change is reported as active: -72.6%. For `CCOC(=O)C1=C(COC(=O)c2cccnc2SC)NC(=O)NC1C` (configuration not stated), the activity change was inconclusive: -38%. In the case of `COc1ccc(NC(=O)c2cccc3ccccc23)cc1OC`, the activity change is reported as inconclusive: -44.2%. For `C/C(CC1CC2=C(CC1(C)C)C(C)(C)CCC2)=N\NC(N)=S` (configuration not stated), the activity change was active: -74.2%. For `Cc1ccn2c(CN3CCOCC3)c(-c3ccccc3)nc2c1`, the activity change was inconclusive: -36.3%. In the case of `COc1ccc([N+](=O)[O-])cc1C(=O)NCCOc1ccc(Cl)cc1`, the activity change is reported as inconclusive: -32.3%. For `COc1cccc(NC(=O)CN(C)C(=O)CNC(=O)c2ccc(C)s2)c1`, the activity change was inconclusive: -37.4%. With `Cc1ccc(NC(=O)c2ccc(S(=O)(=O)N3CCC(C)CC3)cc2)cc1` the activity change was inconclusive: -38.2%. For `CCc1nnc(NC(=O)c2ccc3ccccc3n2)s1`, the activity change was inactive: 34.2%. In the case of `Cc1cc(C(F)(F)F)c(C#N)c(SCC(=O)Nc2nc3cc(Br)ccc3s2)n1`, the activity change is reported as active: -146%. In the case of `O=C(c1ccc(Cl)cc1)C1CCN(C(=O)c2ccccc2)CC1`, the activity change is reported as inconclusive: -46%. With `Cc1cc(OCc2cc(C(=O)N(Cc3nccn3C)C(C)C)no2)cc(C)c1Cl` the activity change was inconclusive: -30.4%. For `CN1CCN(c2ccccc2NC(=O)c2cc(Br)ccc2Cl)CC1`, the activity change was inconclusive: -39.8%. In the case of `N#CCCN(C(=O)COc1ccc(F)cc1Br)c1ccccc1F`, the activity change is reported as inconclusive: -30.8%. For `O=C(N1CCN(CCO)CC1)N1c2ccccc2C=Cc2ccccc21`, the activity change was inactive: 14.4%. For `COc1ccc(Cn2nnnc2C(c2cc3cccc(C)c3[nH]c2=O)N2CCOCC2)cc1` (configuration not stated), the activity change was inactive: 20.8%. In the case of `COc1cc(F)ccc1CN1CCC(C(=O)Nc2ccc(Oc3ccccc3)nc2)CC1`, the activity change is reported as active: -81.4%. In the case of `CCOC(=O)[C@]12CCCC=C1N(Cc1ccc(Cl)cc1Cl)C(=O)[C@H](CC(=O)NCc1ccc(OC)c(OC)c1)C2`, the activity change is reported as inconclusive: -42.2%. For `Cc1cc(N2CCN(C(=O)c3ccco3)CC2)nc(-c2ccccc2)n1`, the activity change was inconclusive: -37.6%. For `CN1CCN(c2ccccc2NC(=O)c2ccc(N3CCCC3)c([N+](=O)[O-])c2)CC1`, the activity change was active: -77.9%. For `CCN1CCN(Cc2ccc(NC(=O)c3ccc(C)c(NC(=O)c4cccc5[nH]ccc45)c3)cc2C(F)(F)F)CC1`, the activity change was active: -72.1% and active: -98.1%. For `Cc1c(CCO)c(=O)n(-c2ccccc2)n1S(=O)(=O)c1c(Cl)cc(Cl)cc1Cl`, the activity change was inconclusive: -48.9%. For `N#Cc1ccc(-c2ccc(OCC(=O)Nc3cccnc3)cc2)cc1`, the activity change was active: -52.1%. For `Cc1ccc(CNCCCSc2nc(C)cc(C)n2)cc1`, the activity change was inconclusive: -38.7%. With `O=C(N/C=C/c1ccccc1)Nc1ccc(Cl)cc1` the activity change was inconclusive: -30.4%. With `CN1CCN(C2=C(Cl)C(=O)N(CCc3ccccc3)C2=O)CC1` the activity change was inconclusive: -34%. For `COc1ccc(CCNC(=O)c2cc(-c3ccco3)on2)cc1OC`, the activity change was inconclusive: -42.8%. With `COC(=O)C1Cc2ccccc2CN1C(=O)CCl` (configuration not stated) the activity change was active: -97.2%. With `CSc1nc(NC(C)C)nc(N2CCOCC2)n1` the activity change was inconclusive: -30.9%. For `COCCNC(=S)N(CCc1c(C)[nH]c2ccc(F)cc12)Cc1cccs1`, the activity change was inconclusive: -36%. For `CCOC(=O)c1c(NC(=O)c2noc(C)c2[N+](=O)[O-])sc(C(C)=O)c1C`, the activity change was inconclusive: -32.6%. With `Nc1nc(C23CC4CCC(CC(C4)C2)C3)cs1` the activity change was inactive: -4.41%. For `COc1cccc(Nc2nc(C(N)Cc3ccccc3)cs2)n1` (configuration not stated), the activity change was inconclusive: -40.6%. With `CCOC(=O)c1c(C)nc2c(c(SC)nn2-c2ccccc2)c1N` the activity change was inconclusive: -30.4%. With `O=C(CCc1nnc2n(Cc3ccc(F)cc3)c(=O)c3ccccc3n12)N1CCN(c2ccccn2)CC1` the activity change was inconclusive: -40.6%. For `COc1nccc(NCc2ccccc2)c1C#N`, the activity change was inconclusive: -48.9%. In the case of `O=C(Cc1ccc(Cl)cc1)Nc1ccccc1N1CCN(C(=O)c2ccccc2)CC1`, the activity change is reported as inconclusive: -31.9%. In the case of `C[C@H]1CCC(=O)N([C@H](CSc2ccc(Br)cc2)Cc2ccccc2)CC1`, the activity change is reported as inconclusive: -42.6%. In the case of `Cc1cc(C)nc(/N=C(\N)N2CCCCC2)n1`, the activity change is reported as inconclusive: -38%. For `Cc1nnc(NC(=O)C2CC(=O)N(c3ccc4c(c3)OCCO4)C2)s1` (configuration not stated), the activity change was inactive: -6.02%. With `CC1Cc2ccccc2N1S(=O)(=O)c1cccc(C(=O)N2CCN(c3ncccn3)CC2)c1` (configuration not stated) the activity change was active: -66.4%. In the case of `COc1ccccc1NC(=O)c1ccc(S(=O)(=O)N2CCC(C)CC2)cc1`, the activity change is reported as inconclusive: -49.1%. With `N/C(Cc1ccc([N+](=O)[O-])cc1)=N\OC(=O)C(c1ccccc1)c1ccccc1` the activity change was inconclusive: -31.4%. In the case of `CS(=O)(=O)c1ccc(Nc2nc(C(N)CCc3ccccc3)cs2)cc1` (configuration not stated), the activity change is reported as inactive: -2.05%. With `CCCc1nc2ccc(NC(C)=O)cc2c(=O)n1Cc1ccccc1Cl` the activity change was inconclusive: -35.1%. With `C=CCn1c(=O)c2c(C)c(C)sc2n2c(Nc3ccc(OC)cc3)nnc12` the activity change was inconclusive: -45.7%. With `O=C(c1c[nH]c2ccc(S(=O)(=O)N3CCOCC3)cc2c1=O)N1CCCC1` the activity change was inactive: -10.2%. For `CCCC/C=C1\CCc2c([nH]c3ccccc23)C1=O`, the activity change was inconclusive: -34.8%. For `CCOC(=O)C1=C(C)N(C[C@@H]2CC[C@@H](Cc3ccc(-c4ccccc4)cc3)O2)C(=O)NC1c1ccc(C(F)(F)F)cc1` (some centres not stated), the activity change was inconclusive: -39.3%. With `CCc1ccc(NC(=O)CCn2c(=O)oc3ccccc32)cc1` the activity change was inconclusive: -35.5%.
